Publication PMC4336329 (PLoS ONE, 2015)
The campaign covered roughly 310,000 compounds. About 14,000 (4.5%) showed an effect of 50% or more. The effect is printed as a negative number. Some of the results follow.

molecular target: human ether-à-go-go-related gene (hERG) potassium channel (human, UniProt Q12809); experiment: primary screen, population patch clamp on CHO cells stably expressing hERG
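Note: peak tail current of the secondary pulse compared with the same well before compound.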

human ether-à-go-go-related gene (hERG) potassium channel, sequence (Q12809 whole entry, looked up): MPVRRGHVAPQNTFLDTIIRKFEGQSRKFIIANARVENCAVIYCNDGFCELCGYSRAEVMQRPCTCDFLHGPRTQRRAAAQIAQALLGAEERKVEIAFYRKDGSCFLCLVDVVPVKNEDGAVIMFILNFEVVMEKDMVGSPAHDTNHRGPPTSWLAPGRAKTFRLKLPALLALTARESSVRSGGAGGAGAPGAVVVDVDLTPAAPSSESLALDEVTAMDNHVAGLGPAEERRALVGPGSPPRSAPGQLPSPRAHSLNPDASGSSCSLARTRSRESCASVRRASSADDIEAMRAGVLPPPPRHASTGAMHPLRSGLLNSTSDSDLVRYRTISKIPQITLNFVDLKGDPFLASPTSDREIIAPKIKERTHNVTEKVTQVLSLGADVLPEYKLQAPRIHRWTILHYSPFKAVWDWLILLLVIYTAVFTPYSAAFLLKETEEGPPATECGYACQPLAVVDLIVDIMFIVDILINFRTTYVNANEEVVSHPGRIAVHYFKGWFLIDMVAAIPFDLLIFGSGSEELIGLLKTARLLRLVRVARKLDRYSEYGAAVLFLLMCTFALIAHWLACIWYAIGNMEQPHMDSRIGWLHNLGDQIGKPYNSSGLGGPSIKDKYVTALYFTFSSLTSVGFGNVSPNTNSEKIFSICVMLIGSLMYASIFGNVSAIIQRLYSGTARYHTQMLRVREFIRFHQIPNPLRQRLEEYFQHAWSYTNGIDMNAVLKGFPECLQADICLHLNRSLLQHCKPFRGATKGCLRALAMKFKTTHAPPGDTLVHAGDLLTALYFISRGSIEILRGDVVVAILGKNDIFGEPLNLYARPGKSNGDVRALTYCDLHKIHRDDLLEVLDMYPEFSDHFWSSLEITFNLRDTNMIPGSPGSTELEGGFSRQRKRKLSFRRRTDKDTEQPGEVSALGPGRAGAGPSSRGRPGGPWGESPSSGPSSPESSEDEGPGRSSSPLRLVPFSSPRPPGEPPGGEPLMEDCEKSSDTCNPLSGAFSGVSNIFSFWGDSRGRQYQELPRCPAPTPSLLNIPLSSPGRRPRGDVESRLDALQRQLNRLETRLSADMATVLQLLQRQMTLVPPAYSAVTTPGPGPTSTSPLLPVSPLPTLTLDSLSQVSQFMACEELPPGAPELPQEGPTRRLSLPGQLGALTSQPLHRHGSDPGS

Going from `CCc1ccc(CN2CCN(C(=O)c3cccc(OC)c3OC)CC2)cc1.O=C(O)C(=O)O` to `COc1ccc(C(=O)C2CCCN(Cc3ccc(NC(C)=O)cc3)C2)cc1OC` (centres unmarked), the “hERG current change (%, negative = inhibition) at 10uM” value falls from -10.3% to -21.1%.

Compared with `CCC1(c2ccc(Cl)cc2)NC(=S)N(c2ccccc2)N1` (centres unmarked), `O=C(Nc1ccc(Cl)cn1)c1cccc(OCc2ccccc2)c1` is lower in “hERG current change (%, negative = inhibition) at 10uM” value: 16.7% for the first, 1.34% for the second.

Compared with `Cc1ccc2c(c1)c(N=NC(N)=O)c(O)n2C`, `Cc1ccc(O)c(C(=O)c2cnn(-c3ccccc3)c2)c1` is lower in “hERG current change (%, negative = inhibition) at 10uM” value: 12.7% for the first, 7.24% for the second.

Compared with `COc1cc([N+](=O)[O-])ccc1Nc1nc(C)cc(C)n1.Cl`, `CCC(=O)Nc1nc2c(OC)ccc(C)c2s1` is lower in “hERG current change (%, negative = inhibition) at 10uM” value: 14.5% for the first, 3.79% for the second.

First: CCCCn1c(C)c(C(=O)OCC)c2c(CN3CCOCC3)c(O)ccc21
Second: CCOC(=O)N1CCN(C(=O)CN(c2ccc(OCC)cc2)S(C)(=O)=O)CC1
The “hERG current change (%, negative = inhibition) at 10uM” value of the first is lower: -55.9% for the first, -13.4% for the second.

Compared with `CC12CCC(=O)N1C(C(=O)OCc1c(Cl)cccc1Cl)CS2` (centres unmarked), `O=C1CSC(=S)N1c1cccc(O)c1` is higher in “hERG current change (%, negative = inhibition) at 10uM” value: -4.54% for the first, 4.95% for the second.

Compared with `CCn1cc(S(=O)(=O)c2ccc(C)cc2)c(=O)c2cc(F)c(N3CCN(C)CC3)cc21`, `COc1cccc(CNC(=O)N2CCN(S(=O)(=O)c3ccc(Cl)cc3)CC2)c1` is higher in “hERG current change (%, negative = inhibition) at 10uM” value: -20.4% for the first, 11.6% for the second.

Compared with `Cc1ccc(C(=O)NN2C(=O)C3C4C=CC(C4)[C@@H]3C2=O)cc1` (some centres unmarked), `CC(=O)C1=C(O)C(=O)N(c2ccccn2)C1c1ccc(C)cc1` (centres unmarked) is higher in “hERG current change (%, negative = inhibition) at 10uM” value: -0.442% for the first, 10.8% for the second.

Going from `O=C(c1ccc(Cl)cc1)C1CCN(C(=O)C2CC2)CC1` to `O=C(c1ccccc1)N1CCC(c2nc(-c3ccc(S(=O)(=O)NCC4CCCO4)cc3)no2)CC1` (centres unmarked), the “hERG current change (%, negative = inhibition) at 10uM” value rises from -10.7% to -3.97%.

First: Cn1nc(CC(=O)NCc2ccc(F)cc2)c2ccccc2c1=O
Second: CN1N=C2c3ccccc3CCCC2C1c1ccc(F)cc1 (centres unmarked)
The “hERG current change (%, negative = inhibition) at 10uM” value of the first is lower: -11.4% for the first, 0.747% for the second.

First: CCOC(=O)c1cn(Cc2ccccc2)nc1-c1ccccc1
Second: CCCn1c2ccccc2c2cnn(CC(=O)NC3CCN(Cc4ccccc4)CC3)c(=O)c21
The “hERG current change (%, negative = inhibition) at 10uM” value of the first is higher: -8.37% for the first, -55.1% for the second.

Going from `Brc1ccc2nc(CSc3ncn[nH]3)cn2c1` to `O=C(CSc1n[nH]c(-c2ccncc2)n1)Nc1ccc(Cl)c(C(=O)O)c1`, the “hERG current change (%, negative = inhibition) at 10uM” value rises from -13.1% to 15.5%.

First: COc1ccc(S(=O)(=O)NC2CCCCCC2)cc1C(N)=O
Second: CCOC(=O)CN(C(=O)CNC(=O)c1ccco1)C(C(=O)NC1CCCCC1)c1cccs1 (centres unmarked)
The “hERG current change (%, negative = inhibition) at 10uM” value of the first is higher: 10.6% for the first, 9.22% for the second.

Going from `O=C(NC(=S)Nc1ccccc1Br)c1ccco1` to `Cc1cc(Br)ccc1NC(=S)NCCc1ccccc1`, the “hERG current change (%, negative = inhibition) at 10uM” value falls from 21.9% to 5.4%.

Going from `CC(c1ccon1)N(C)Cc1c(C(=O)N(C)Cc2ccccc2)nc2ccccn12` (centres unmarked) to `O=C(O)C(=O)O.Oc1ccccc1CN(CCc1ccccc1)Cc1ccccc1`, the “hERG current change (%, negative = inhibition) at 10uM” value rises from -9.17% to 20.1%.

Going from `COc1ccc(COC(=O)c2ccc3c(=O)n4c(nc3c2)CCC4)cc1F` to `COc1ccc(/C=N/NC(=O)c2ccc(Cn3cc([N+](=O)[O-])cn3)o2)c(OC)c1C`, the “hERG current change (%, negative = inhibition) at 10uM” value rises from -2.66% to 24.1%.

Compared with `Cc1ccc(OCC(=O)N2CCN(S(=O)(=O)c3ccccc3)CC2)c([N+](=O)[O-])n1`, `COc1ccc(OC)c(NC(=O)NCCN2CCN(c3ccccc3)CC2)c1` is higher in “hERG current change (%, negative = inhibition) at 10uM” value: -45.8% for the first, -17.6% for the second.

Compared with `Cc1ccc2c(c1)N(CC(=O)N(Cc1ccc3c(c1)OCO3)CC1CCCO1)C(=O)C(C)O2` (centres unmarked), `Cc1ccccc1Nc1nnc(SCC(=O)NC(=O)Nc2ccc3c(c2)OCCO3)s1` is higher in “hERG current change (%, negative = inhibition) at 10uM” value: -37% for the first, -6.1% for the second.

Going from `COc1ccc(NS(=O)(=O)c2cccc(C(=O)N/N=C/c3cn(-c4ccccc4)nc3-c3ccc(OC)cc3)c2)cc1` to `Cc1ccc(CNC(=S)Nc2ccc(NS(=O)(=O)c3ccc(C)cc3)cc2)cc1`, the “hERG current change (%, negative = inhibition) at 10uM” value rises from -11.3% to -4.96%.

Compared with `O=C(O)CCCNC(=O)/C(=C\c1ccc(Cl)cc1)NC(=O)c1ccc(Br)cc1`, `Cc1ccc(CSCCNS(=O)(=O)c2ccccc2)cc1` is lower in “hERG current change (%, negative = inhibition) at 10uM” value: 12.3% for the first, -35.8% for the second.

Going from `COCCNC(=O)c1c(C)cc(C)cc1C` to `Cc1cc(Cl)c2oc(C(=O)NC(C)c3ccncn3)c(C)c2c1` (centres unmarked), the “hERG current change (%, negative = inhibition) at 10uM” value falls from 10.1% to -11.2%.

Going from `Cc1ccc(S(=O)(=O)Nc2cccc3ncccc23)cc1` to `COc1ccc(OC)c(NC(=O)Nc2c(O)ccc3ccccc23)c1`, the “hERG current change (%, negative = inhibition) at 10uM” value falls from -13.4% to -20.7%.

First: O=C(O)C1C2C=CC(C2)C1C(=O)NC1CCS(=O)(=O)C1 (centres unmarked)
Second: CCOC(=O)N1CCN(C(=S)NC(=O)/C=C/c2ccc(C)cc2)CC1
The “hERG current change (%, negative = inhibition) at 10uM” value of the first is higher: 13.3% for the first, -0.681% for the second.

Compared with `COC(=O)[C@]1(C)CCC[C@@]2(C)C3CC[C@@]4(C)C[C@]3(CCC21)CC(=O)N4Cc1ccc(OC)cc1` (some centres unmarked), `Cc1ccc(/C=N/N=C2\SCC(=O)N2CC2CC2)cc1` is lower in “hERG current change (%, negative = inhibition) at 10uM” value: 7.82% for the first, 6.26% for the second.

Compared with `COC(=O)c1c(N)c(C#N)c2n1CCCCC2`, `CN(CCc1ccccn1)C(=O)CCC1CCCN(C(=O)CN2CCCCCC2)C1` (centres unmarked) is higher in “hERG current change (%, negative = inhibition) at 10uM” value: -2.6% for the first, 10.1% for the second.

Compared with `CCc1nn(CC(=O)NCc2cccnc2)c(=O)c2cc3occc3n12`, `CCOC(=O)C(Cc1ccccc1)NC(=O)CCc1c(C)nc2ncnn2c1C` (centres unmarked) is higher in “hERG current change (%, negative = inhibition) at 10uM” value: -7.02% for the first, 7.28% for the second.

First: CCOC(=O)c1csc(-c2snnc2C)n1
Second: OCC#CCSc1nnc(-c2ccccc2Br)o1
The “hERG current change (%, negative = inhibition) at 10uM” value of the first is lower: 0.458% for the first, 4.35% for the second.

First: Cc1ccc(N=Cc2cc3c(cc2O)OC(N)=C(C#N)C3c2ccccc2)cc1 (centres unmarked)
Second: O=C(c1cccs1)N1CCN(c2ccc(F)cc2)CC1
The “hERG current change (%, negative = inhibition) at 10uM” value of the first is higher: -0.368% for the first, -9.63% for the second.
